Screen size: about 1,500 compounds; about 100 (6.7%) were called active. Another 7% or so got no clear call; they are omitted. Calls come from the whole dose curve; as a rule, active = well fitted inhibition curve with a large enough effect; inconclusive = small, poorly fitted or top-dose-only effect, or effect the other way; inactive = flat fitted curve, though single readings scatter. This is one part of the list.
% is set by controls: 0 for no effect and ±100 for the full control effect; potency is the fitted concentration of half-maximal effect.

Chain of UniProt Q01196 (Q01196 whole entry, looked up): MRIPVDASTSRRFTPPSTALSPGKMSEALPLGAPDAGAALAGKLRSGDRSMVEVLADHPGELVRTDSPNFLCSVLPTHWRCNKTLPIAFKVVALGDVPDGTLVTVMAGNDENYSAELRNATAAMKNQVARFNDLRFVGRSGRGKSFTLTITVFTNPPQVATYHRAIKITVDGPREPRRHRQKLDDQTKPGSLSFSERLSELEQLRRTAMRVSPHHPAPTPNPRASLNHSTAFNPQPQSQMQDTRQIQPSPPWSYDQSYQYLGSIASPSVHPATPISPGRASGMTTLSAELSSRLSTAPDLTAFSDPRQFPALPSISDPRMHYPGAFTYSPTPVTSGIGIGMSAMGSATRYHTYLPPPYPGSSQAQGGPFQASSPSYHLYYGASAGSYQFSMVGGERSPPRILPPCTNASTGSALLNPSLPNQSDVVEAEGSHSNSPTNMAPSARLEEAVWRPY
Chain of UniProt Q01196 (Q13951 whole entry, looked up): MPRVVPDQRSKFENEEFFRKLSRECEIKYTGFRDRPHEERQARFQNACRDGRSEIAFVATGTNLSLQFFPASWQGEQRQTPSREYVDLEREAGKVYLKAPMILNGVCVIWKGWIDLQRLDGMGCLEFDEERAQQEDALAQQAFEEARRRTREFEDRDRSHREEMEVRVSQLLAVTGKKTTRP

This test deals with Runt-related transcription factor 1 (Homo sapiens) + Core-binding factor subunit beta (Homo sapiens) (UniProt Q01196+Q13951). Put plainly: qHTS Assay for Compounds Blocking the Interaction Between CBF-beta and RUNX1 for the Treatment of Acute Myeloid Leukemia: Hit Validation. Note: nearly all actives have a fitted effect of over 60% in size. The settings on record: AlphaScreen CBFb-His/RUNX1-biotin binding; series mostly up to 59.8 µM; activity, negative = inhibition: at the top concentration. The procedure, abridged:
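AlphaScreen proximity assay: His-tagged CBF-beta and biotinylated RUNX1 (30 nM each) preincubated 20 min, then compound 15 min, then nickel and streptavidin beads 90 min, all at room temperature; signal read at […]em 440 nm.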
As for `CCOc1nc2c(c(-c3cccs3)c1C#N)Cc1ccccc1-2`, the “activity, negative = inhibition” value is inactive: -0.648%.

As to `Nc1nc(Nc2ccccc2)nc(NCCO)c1[N+](=O)[O-]`, the “activity, negative = inhibition” value is inactive: -6.03%.

For `COc1ccccc1Cc1nc(-c2cccnc2)no1`, the “activity, negative = inhibition” value was inactive: -20.2%.

As to `CC(C)(C)c1cc2nc(N)nc(N)n2n1`, the “activity, negative = inhibition” value was inactive: 5.32%.

As to `Cc1onc(-c2c(F)cccc2Cl)c1C(O)c1ccc(F)cc1` (centres undefined), the “activity, negative = inhibition” value is inactive: 7.39%.

For the compound `CC(=O)c1sc(C(C)(C)C)cc1NC(=O)CCC(=O)O`, the “activity, negative = inhibition” value was inactive: 3.13%.

On to `Cc1ccc2cc(NC(=O)Cc3ccccc3)ccc2n1`, for which the “activity, negative = inhibition” value was inactive: 1.09%.

For the compound `CCOP(=O)(c1ccc(N(C)C)cc1)C(O)c1cccnc1` (centres undefined), the “activity, negative = inhibition” value is inactive: -3.85%.

Take `O=C1CCC(c2ccccc2)(c2ccccc2)CC1`: the “activity, negative = inhibition” value is inactive: 2.46%.

Regarding `Nn1c(SCC(=O)Nc2ccc(S(N)(=O)=O)cc2)nnc1C(F)(F)F`, the “activity, negative = inhibition” value was inactive: 4.8%.

For the compound `Cc1nc(SCc2cccc(F)c2)c2oc3ccccc3c2n1`, the “activity, negative = inhibition” value is inactive: 4.51%.

Take `O=C(CN1CCN(C(c2ccccc2)c2ccccc2)CC1)N1N=CCC1c1ccccc1` (centres undefined): the “activity, negative = inhibition” value is inactive: -5.94%.

Take `COc1cccc(N/C(=N/C(=S)Nc2ccc(C)cc2C)Nc2nc(C)cc(C)n2)c1`: the “activity, negative = inhibition” value was inactive: -8.33%.

As to `Cc1nn2c(NCCCN(C)C)c3c(nc2c1-c1ccccc1)CCCC3`, the “activity, negative = inhibition” value is inactive: -5.29%.

As to `CCCN(CCC)CC(=O)N1CC(=O)Nc2ccccc21`, the “activity, negative = inhibition” value was inactive: -3.26%.

As for `COC(=O)c1sccc1NC(=O)CC1C(=O)NCCN1C(=O)c1ccc(C)c(C)c1` (centres undefined), the “activity, negative = inhibition” value was inactive: -1.81%.

As for `O=C(Oc1cc(=O)oc2c1c(=O)n1c3c(cccc23)CC1)c1ccc(F)cc1`, the “activity, negative = inhibition” value is inactive: -3.29%.

With `CCC(C)NC(=O)CC(C)C` (centres undefined), the “activity, negative = inhibition” value is inactive: -11.8%.

For `O=C(c1ccc(Cn2cc(Cl)c([N+](=O)[O-])n2)cc1)N1CCN(Cc2ccccc2)CC1`, the “activity, negative = inhibition” value was inactive: -5.87%.

For `Nc1ccc(C(=O)Nc2ccc(Nc3ccncc3)cc2)cc1`, the “activity, negative = inhibition” value was inactive: -7.6%.

For the compound `c1ccc(-n2ncc3cccnc32)cc1`, the “activity, negative = inhibition” value is inactive: 8.29%.

Turning to `COc1ccc(-c2nnc(SCC(=O)N/N=C/c3ccccc3C(=O)O)n2-c2ccc(Cl)cc2)cc1`, the “activity, negative = inhibition” value was inactive: 0.903%.

As for `CC12CCC(C/C1=N\OC(=O)c1c(F)cccc1F)C2(C)C` (centres undefined), the “activity, negative = inhibition” value is inactive: 1.96%.

`O=C(Nc1ccc2ccccc2c1)c1cccc(F)c1`: the “activity, negative = inhibition” value is inactive: 1.18%.

Take `Cc1ccc(/C=N/N2CCN(c3ccccn3)CC2)o1`: the “activity, negative = inhibition” value was inactive: -6.58%.

Consider `CCNC(=O)Oc1ccc[nH]c1=O`, for which the “activity, negative = inhibition” value is inactive: 4.28%.

As to `N#C/C(=C\c1ccc(OC(=O)c2ccccn2)cc1)C(N)=O`, the Potency was active: 4.34 µM.

On to `COc1cccc(/C=C2\SC(=S)N(C(C(=O)O)c3ccccc3)C2=O)c1OC` (centres undefined), for which the “activity, negative = inhibition” value was inactive: 0.937%.

`CCCc1ccc(C(=O)NC(=O)c2ccccc2O)cc1`: the “activity, negative = inhibition” value is inactive: -5.21%.

Regarding `COC(=O)c1ccc(COc2ccc(C)cc2[N+](=O)[O-])o1`, the “activity, negative = inhibition” value was inactive: 9.46%.

As for `CCOC(=O)c1cn[nH]c1NC(=S)Nc1ccc(OC)cc1`, the “activity, negative = inhibition” value was inactive: 12.7%.

In the case of `Cc1nn2c(NCc3ccccn3)cc(C(C)C)nc2c1-c1ccccc1`, the “activity, negative = inhibition” value is inactive: 1.61%.

As to `COc1ccccc1OCc1ccc(C(=O)NN)o1`, the “activity, negative = inhibition” value was inactive: -13.3%.

Turning to `O=C1COc2ccc(C(=O)CSc3ccccc3C(=O)O)cc2N1`, the “activity, negative = inhibition” value was inactive: 10.8%.

As for `Cc1ccc(OCc2ccc(C(=O)NN)o2)cc1C`, the “activity, negative = inhibition” value was inactive: 2.41%.

As to `Nc1cc(Cl)nnc1Cl`, the “activity, negative = inhibition” value is inactive: -2.32%.

As to `CC(C)CCN1NC2(CCCC(C)C2)NC1=S` (centres undefined), the “activity, negative = inhibition” value is inactive: -10.9%.

With `Cc1nn2c(NCCN(C)C)c3c(nc2c1-c1ccccc1)CCCC3`, the “activity, negative = inhibition” value is inactive: 6.23%.

As to `CCn1cc(C(c2ccccc2)C(C(C)=O)[N+](=O)[O-])c2ccccc21` (centres undefined), the “activity, negative = inhibition” value was inactive: -2.5%.

Turning to `O=C(O)CCNC(=O)CCCn1nnc2ccccc2c1=O`, the “activity, negative = inhibition” value was inactive: -5.68%.

Turning to `O=S(=O)(c1ccc(F)cc1F)N1CCCN(c2ccc(C(F)(F)F)cn2)CC1`, the “activity, negative = inhibition” value was inactive: -2.34%.

For `CCOC(=O)N1CCC(NS(=O)(=O)c2ccc(C)cc2)CC1`, the “activity, negative = inhibition” value is inactive: 1.85%.

For the compound `C/C(=N/NC(=O)CNC(=O)Cc1ccccc1)c1ccc(Cl)cc1`, the “activity, negative = inhibition” value is inactive: -14.4%.

For `CC(C)N(CCn1cnc2c([nH]c3ccccc32)c1=O)C(C)C`, the “activity, negative = inhibition” value was inactive: 1.42%.

For the compound `S=C(N/N=C/c1cccc2ccccc12)Nc1cccc(Cl)c1`, the “activity, negative = inhibition” value was inactive: -12.9%.

For `COCCn1c(-c2ccc(Br)cc2)nc2oc3cc(OC)ccc3c(=O)c2c1=O`, the “activity, negative = inhibition” value was inactive: -5.69%.

Regarding `CCn1c(SCC(=O)N/N=C/c2ccncc2)nc2ccccc21`, the “activity, negative = inhibition” value is inactive: 1.76%.

Regarding `COc1ccc(C(=O)O)nc1C`, the “activity, negative = inhibition” value was inactive: -29.3%.

For `Cc1sc2nc(COC(=O)c3ccc(Cl)c(N)c3)[nH]c(=O)c2c1C`, the “activity, negative = inhibition” value is inactive: 8.4%.

With `Cc1nn(C)cc1/C=N/NC(=O)c1ccco1`, the “activity, negative = inhibition” value was inactive: -3.8%.

Take `Cc1ccc(N=CC2=C(O)CC(c3ccccc3Cl)CC2=O)cc1` (centres undefined): the “activity, negative = inhibition” value was inactive: 3.29%.

As to `CN(C)c1cc(-c2ccc(Br)cc2)oc(=O)c1Cl`, the “activity, negative = inhibition” value is inactive: -13%.

In the case of `CN1c2ccccc2C(=O)/C(=C\Nc2ccc(F)cc2F)S1(=O)=O`, the “activity, negative = inhibition” value was inactive: -0.318%.

Consider `Cc1oc(S(=O)(=O)N2CCCC2)cc1C(=O)Nc1ccc(F)cc1`, for which the “activity, negative = inhibition” value is inactive: -4.36%.

For `O=C(CSc1nc2ccccc2n1Cc1ccccc1Cl)N/N=C/c1ccccc1C(=O)O`, the “activity, negative = inhibition” value was inactive: -18%.

Take `O=C(NNC(=S)NC1CC2C=CC1C2)c1ccncc1` (centres undefined): the “activity, negative = inhibition” value is inactive: 8.75%.

In the case of `O=C(Oc1c(-c2ccccc2)c(=O)n2c3c(cccc13)CC2)c1ccc(Cl)cc1`, the “activity, negative = inhibition” value is inactive: -18.5%.

On to `CCOC(=O)[C@H](CCc1ccccc1)N[C@@H](C)C(=O)N1[C@H](C(=O)O)C[C@H]2CCCC[C@@H]21`, for which the “activity, negative = inhibition” value was inactive: -20.1%.

For `Cc1nc2ccccc2nc1N1CCCC1`, the “activity, negative = inhibition” value was inactive: 2.06%.

Source of the values: PubChem BioAssay AID504374 (National Center for Advancing Translational Sciences (NCATS), 2011).
